“And” between values parts separate entries of the source, which are not always exact repeats. Equal values may be shown once.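 Method: 48-hour compound exposure of cells in 96-well plates, five concentrations, linear interpolation of endpoints. Here, GI50 denotes the concentration required for 50% inhibition of growth. Definition used: TGI = concentration required for complete inhibition of growth.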
Test system: NCI-H322M lung
Assay: NCI tumour cell line growth inhibition, 48 h

SMILES	TGI	GI50
COc1ccc(OC)c(CCc2cc(OC)ccc2OC)c1	> 10 µM	–
N#Cc1nc(/C=C/c2nc(C#N)c(N)o2)oc1N	> 10 µM	–
COc1nc(=O)n(C2CC(F)C(CO)O2)cc1C (configuration not stated)	> 100 µM	–
CC1(C)C2CCC(=O)C1C(OCc1ccccc1)C2 (configuration not stated)	> 100 µM	–
OC(Cc1ccc2ccccc2n1)(C(F)(F)F)C(F)(F)F	> 10 µM	–
O=C(c1cccs1)c1c(C(F)(F)F)n([O-])c2ccc(Cl)cc2[n+]1=O	11.5 µM	4.94 µM
C=CCN=C1N=C(C)C(C(=O)OCC)S1 (configuration not stated)	> 100 µM	–
C/C(=C\COc1ccc2ccc(=O)oc2c1)C1=CC(=O)C(C)(C)O1	15.1 µM and 7.81 µM	4.41 µM
COc1ccc2[nH]c(=O)c(/C=C/C(=O)c3ccccc3OC)cc2c1	10.4 µM	2.4 µM
CC(=O)OCC1OC(n2c(-c3ccc(Cl)cc3)cc(-c3ccccc3)c(C#N)c2=S)C(OC(C)=O)C(OC(C)=O)C1OC(C)=O (configuration not stated)	33.9 µM	–
COC1OC(COC(=O)NCCCCC(=O)C(F)(F)C(F)(F)C(F)(F)C(F)(F)C(F)(F)C(F)(F)C(F)(F)F)C(O)C(O)C1O (configuration not stated)	33 µM and 24.6 µM	–
O=c1oc2ccccc2c(O)c1C(C/C(CCN1CCCC1)=N/O)c1ccccc1 (configuration not stated)	> 100 µM	–
Cc1cc2nn(C3CCCO3)nc2cc1C (configuration not stated)	> 100 µM	–
COC(=O)C1C(O)C(C)C(O)C(C)(O)/C=C/C=C(C)C(=O)Nc2c(C)c(OC(C)=O)c3c(c2O)C(=O)C(C)=C2OCOC(=C23)C(C)=CC(C)(O)C(O)C(C)C1OC(C)=O (configuration not stated)	39.8 µM	23.1 µM
Cc1ccc2cc3cccc(C(=O)NCCN(C)C)c3nc2c1	3.95 µM	–
CCN1CCN(Cc2ccc(NC(=O)c3nc4ccc5[nH]ncc5c4c4c3CCCC4)cc2C(F)(F)F)CC1	4.42 µM	1.37 µM
COc1ccc2nc3n(c2c1)C(c1c(F)cccc1Cl)SC3 (configuration not stated)	> 100 µM	–
O=C(Nc1ccc(-n2ccc3c(NC(=O)c4ccccc4)ncnc32)cc1)c1ccc(Cl)c(C(F)(F)F)c1	23.2 µM	6.41 µM
CSc1cc(Cl)c(C)cc1S(=O)(=O)NC(=O)Nc1ccc(Cl)cc1	> 100 µM	–
Nc1cc2ccccc2c(O)c1O	30.1 µM	15.7 µM
NC(Cc1cnc(I)[nH]1)C(=O)O (configuration not stated)	> 100 µM	–
O=c1cc(O)ccn1C1C=C(CO)C(O)C1O (configuration not stated)	> 625 µM	–
CC(=O)Nc1ccc(S(=O)(=O)/N=C2\C=CC(=O)c3ccccc32)cc1	31.3 µM	–

SMILES	TGI	GI50
CS(=O)(=O)OCCn1c2c(c3c(O)cccc31)C(=O)c1ccccc1-2	> 100 µM	> 100 µM
N=c1c2ccccc2nc2oc3ccccc3n12	72.4 µM	–
COc1cccc(C=O)c1[O-].COc1cccc(C=O)c1[O-].[Cu+2]	31.8 µM	–
Cc1c2cccc(Sc3ccccc3)c2c2c3c(cccc13)[S+](c1ccccc1)C2 (configuration not stated)	15.7 µM	–
COc1c(O)ccc(C2=Cc3ccc(O)cc3OC2)c1OC	> 77.6 µM	–
O=C1C=C(Nc2cccnc2)c2ccccc2C1=O	31.3 µM	–
O=C1C(=C2SC(c3ccccc3)(c3ccccc3)c3ccccc32)C(=O)c2ccccc21	> 100 µM	–
Cc1ccc(-n2c(=S)[nH]c3ccc(Br)cc3c2=O)cc1	> 100 µM	–
COC(=O)[C@@H](C)C[C@H](Cc1ccccc1)NC(=O)c1nc([C@@H](C[C@H](C(C)C)N(C)C(=O)[C@@H](NC(=O)[C@H]2CCCCN2C)C(C)C)OC(C)=O)sc1C(C)C	28.9 µM	0.0133 µM
CC(C)=C[C@@H]1C[C@H](C)[C@H]2CC[C@H](C)c3c(O)c(OC4OCC(O)C(O)C4O)c(C)c1c32 (some centres not stated)	26.1 µM	13.3 µM
Cc1nn(CN2CCN(C)CC2)c(=S)n1/N=C/c1ccc(-c2ccc(Cl)cc2Cl)o1	> 100 µM	–
Cc1cc(NS(=O)(=O)c2ccc(NC(=O)c3ccc(Cl)c4c(Nc5ccc(S(N)(=O)=O)cc5)c5ccccc5nc34)cc2)no1	37.8 µM	–
CCC(C)C1=NC(C(=O)N/C=C\c2c[nH]c3cc(Br)c(Br)cc23)(C(C)C)NC1=O (configuration not stated)	35.9 µM	18.5 µM
Cc1cc(-c2ccc(C3C(C#N)=C(N)Oc4c3c(=O)oc3ccccc43)cc2)cnc1F (configuration not stated)	> 100 µM	86.7 µM
Nc1nnnn1NC(=O)NCCCl	> 10 µM	–
O=c1[nH]c2c3ccncc3cc(-c3cccc(Cl)c3)c2c2cnccc12	> 100 µM	> 100 µM
N#C/C(=C/N1C(=O)/C(=C/c2ccc([N+](=O)[O-])cc2)SC1=S)c1nc2ccccc2s1	88.3 µM	–
CCOP(=O)(OCC)/C(C#N)=C/c1nccn1C	> 100 µM	–
CC(CO)(CO)N1C(=O)C2C3c4ccccc4C(c4ccccc43)C2C1=O (configuration not stated)	> 100 µM	–
O=C(/C=C/c1ccccc1O)c1cccs1	> 100 µM	–
O=C(O)CCC(=O)N1C/C(=C\c2ccccc2)C(=O)/C(=C/c2ccccc2)C1	21.1 µM	–
S=C1Cc2cc3ccccc3nc2-c2ccccc2N1	46.9 µM	–
c1ccc(-c2nc([P+](c3ccccc3)(c3ccccc3)c3ccccc3)c(N3CCOCC3)o2)cc1	15.9 µM	3.18 µM

SMILES	TGI	GI50
NC(=O)c1ccc(NCC2=CC(=O)C=CC2=O)cc1	> 100 µM	–
CC(=O)O[C@H]1[C@@H]2OC(=O)C3(CC3)C2C[C@H]2O[C@]2(C)CC/C=C(\C)CCC[C@@H]1C (some centres not stated)	91 µM	27.3 µM
COc1cc(/C=C\c2cc(/C=C\c3ccc(O)c(OC)c3)n(C(=O)COc3ccccc3)n2)ccc1O	10.3 µM	1.78 µM
COc1cccc(C2c3cc4c(cc3OC(NNc3ccccc3)C2C)OCO4)c1OC (configuration not stated)	> 100 µM	–
CCCCCCCCCCCCCCCCCCNc1nc(=O)n(C2CC(O)C(COP(=O)(O)OCC(COP(=O)(O)OC3C(CO)OC(n4ccc(N)nc4=O)C3O)OCCCCCCCCCCCCCCCCCC)O2)cc1F (configuration not stated)	> 100 µM	–
Cc1n(Cc2ccc3ccccc3c2)c2ccccc2[n+]1Cc1ccc2ccccc2c1	3 µM	1.56 µM
O=c1c2[nH]ccc2nc2n1CCS2	> 100 µM	> 100 µM
CC(C)CNC(=O)c1ccc(NC(=O)N(CC(C)C)C(=O)c2ccc(N)c(OCCCN)c2)c(OCCCN=C(N)N)c1	> 62.5 µM	> 62.5 µM
COC(=O)CCC1=C(C)C(C)=N/C1=C\c1[nH]c(-c2ccc[nH]2)cc1OC	19.3 µM	1.72 µM
Cc1nc(Nc2ccc(Cl)cc2)sc1C(=O)NNC(=O)C(=O)NN	92.8 µM	–
CCNC(=O)OCC1C2=C(C(=O)C(C)=C(N)C2=O)N2CC3C(N3C)C12OC (configuration not stated)	> 100 µM	–
COc1ccc(CNC(=O)[C@H](Cc2ccc(O)cn2)NC(C)=O)cc1OC	> 100 µM	–
Cc1ccc(-c2cc(-c3cc(-c4ccc(C)cc4C)n[nH]3)[nH]n2)c(C)c1	37.4 µM	–
CCCCCCCCCCCCCC(=S)N/C=C/OC	> 100 µM	–
N=C(N)c1ccc(-c2ccc(-c3cccs3)o2)cc1	4.3 µM	2.08 µM
COc1ccc(-c2cn(-c3cccc(C(=O)/C=C/c4cc(OC)c(OC)c(OC)c4)c3)c(=O)[nH]2)cc1	13.6 µM	2.66 µM
[O-][n+]1c2cc(CBr)c(CBr)cc2[n+]([O-])c2c(O)cccc21	24.2 µM	–
Cc1cnc(NC2CCOCC2)nc1-n1cnc(C(=O)N[C@H](CN)c2cc(F)cc(Cl)c2)c1	42.4 µM	0.139 µM
CN(C)CCNC(=O)c1cccc(NC(=O)c2ccccc2)c1[N+](=O)[O-]	> 100 µM	–
Cc1cn(C2OC(CO)C(O)C2O)c(=O)[nH]c1=O (configuration not stated)	> 1000 µM	–
Cc1ccc(-c2cc(=S)n(-c3ccccc3)c3nc(=S)n(-c4ccccc4)c(N)c23)cc1	> 100 µM	–
CC(C)CC(=O)[O-].N.N.N.N.N.[Co+3].[O-][Cl+3]([O-])([O-])[O-]	> 100 µM	> 100 µM
